# ± gives the standard error. This sample is rich in variants without activity.
# B1: glmS ribozyme (parent)
# chain: AUAAAAGCGCCAGAACUACAGAAAUGUAGUUGACGAGGAGGAGGUUUAUCGAAUUUUCGGCGGAUGCCUCCAAA
# Columns and labels:
# Conditions in all cases: with glucosamine-6-phosphate
# glucosamine-6-phosphate [1] = variants of: B1; assay: self-cleavage kobs at 640 uM GlcN6P; higher = faster cleavage; RNA array
# Method in brief: (§1)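 Sequenced MiSeq chips were the platform: E. coli RNA polymerase transcribed barcoded ribozyme variants on them in situ, and a hybridised Cy3 probe tracked these at 37 °C. After glucosamine-6-phosphate (40 μM to 10 mM) in HEPES/KCl/Mg(OAc)2 buffer was flowed in, tiles were imaged over ~14 h. Signals normalised to baseline and to non-cleaving reference variants were reduced to per-tile medians and fit to one- or two-exponential decays to obtain kobs. kcat and KM were derived through weighted Michaelis–Menten fits across concentrations.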
# glucosamine-6-phosphate [2] = variants of: B1; assay: self-cleavage kobs at 2500 uM GlcN6P; higher = faster cleavage; RNA array
# Method in brief: as §1
# glucosamine-6-phosphate [3] = variants of: B1; assay: self-cleavage kobs at 160 uM GlcN6P; higher = faster cleavage; RNA array
# Method in brief: as §1
# glucosamine-6-phosphate [4] = variants of: B1; assay: self-cleavage kobs at 10000 uM GlcN6P; higher = faster cleavage; RNA array
# Method in brief: as §1
Variant,self-cleavage kobs at 640 uM GlcN6P (glucosamine-6-phosphate [1]),self-cleavage kobs at 2500 uM GlcN6P (glucosamine-6-phosphate [2]),self-cleavage kobs at 160 uM GlcN6P (glucosamine-6-phosphate [3]),self-cleavage kobs at 10000 uM GlcN6P (glucosamine-6-phosphate [4])
A53G C61G G63U,< 1e-05 s⁻¹,< 1e-05 s⁻¹,,
A53U U55G C61A G62C,< 1e-05 s⁻¹,,,
A6U G37U G40C U47A C50U,,< 1e-05 s⁻¹,,
U30G G40C A42U,,,< 1e-05 s⁻¹,
C10U G51A U55C,,< 1e-05 s⁻¹,< 1e-05 s⁻¹,
G40A G43A U49C A52G,,< 1e-05 s⁻¹,< 1e-05 s⁻¹,
A14C A36U G38C A39G,,,< 1e-05 s⁻¹,
C50A U55C C71G,,,< 1e-05 s⁻¹,< 1e-05 s⁻¹
U49A U56C,< 1e-05 s⁻¹,< 1e-05 s⁻¹,,
G37U A48G C70U,< 1e-05 s⁻¹,,,
U49G C68U,,,5.03e-05 ± 2.2e-05 s⁻¹,
G43A A53G G60U,< 1e-05 s⁻¹,< 1e-05 s⁻¹,,
G7A G9A A14G A36U,,< 1e-05 s⁻¹,,
A42C G62U C71G,< 1e-05 s⁻¹,< 1e-05 s⁻¹,,
G38A G40A U49G G60U,< 1e-05 s⁻¹,< 1e-05 s⁻¹,< 1e-05 s⁻¹,
G38C A39C G43A U45G A52U,< 1e-05 s⁻¹,< 1e-05 s⁻¹,,
A52C A53C,< 1e-05 s⁻¹,,,< 1e-05 s⁻¹

Variant,self-cleavage kobs at 640 uM GlcN6P (glucosamine-6-phosphate [1]),self-cleavage kobs at 2500 uM GlcN6P (glucosamine-6-phosphate [2]),self-cleavage kobs at 160 uM GlcN6P (glucosamine-6-phosphate [3]),self-cleavage kobs at 10000 uM GlcN6P (glucosamine-6-phosphate [4])
A6C G9U C10U G13A U69G,,< 1e-05 s⁻¹,< 1e-05 s⁻¹,
G41A G44A C61A C68A,,,< 1e-05 s⁻¹,
C8U U54A G62C,,< 1e-05 s⁻¹,< 1e-05 s⁻¹,
A36C G38C G63C,< 1e-05 s⁻¹,< 1e-05 s⁻¹,,
G7C A12G G35U U46A,,< 1e-05 s⁻¹,,
G51U C58U,,,< 1e-05 s⁻¹,< 1e-05 s⁻¹
A12G G35U A53U,,,< 1e-05 s⁻¹,< 1e-05 s⁻¹
A6C C11U G62U,,< 1e-05 s⁻¹,,
G37C G41C U56G C58U,< 1e-05 s⁻¹,,,
A39C A42U G44U U54A,< 1e-05 s⁻¹,< 1e-05 s⁻¹,,
G37U A39C,< 1e-05 s⁻¹,< 1e-05 s⁻¹,< 1e-05 s⁻¹,< 1e-05 s⁻¹
C11G A53G,,,< 1e-05 s⁻¹,
G40C U47C C68G,< 1e-05 s⁻¹,,,
G40A G66U,6.02e-05 ± 1.2e-05 s⁻¹,0.000124 ± 2e-05 s⁻¹,,0.000203 ± 3.5e-05 s⁻¹
G35U C58U G63U,,< 1e-05 s⁻¹,< 1e-05 s⁻¹,
A6C A14G G32U A42C,,< 1e-05 s⁻¹,,
